# Experimental data reported in PubChem BioAssay AID485344 (National Center for Advancing Translational Sciences (NCATS), 2010).
# In all, about 340,000 compounds went through this assay and about 6,900 (2%) were called active. Rule as the data show it: active = inhibition above about 30%; inactive = below that, where a call was filed. This is a selection; strong and weak results do not stand in their true shares. Where no call is shown, the source filed none.
# Target: D(2) dopamine receptor (Homo sapiens) (UniProt P14416)
# Test: HTS Assay for Allosteric Antagonists of the Human D2 Dopamine Receptor: Primary Screen for Antagonists; also: 0% is about no effect
# Details: HEK293 TREx D2 cells, calcium flux, dopamine EC80; at 10 µM; stronger effect = higher value
# Method in brief: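 In this primary screen, negative modulation is detected by tracking calcium flux after an EC80 dopamine challenge in inducible HEK293 T-REx D2 cells preexposed to test compound for 180 s.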
# UniProt P14416, sequence (P14416 whole entry, looked up): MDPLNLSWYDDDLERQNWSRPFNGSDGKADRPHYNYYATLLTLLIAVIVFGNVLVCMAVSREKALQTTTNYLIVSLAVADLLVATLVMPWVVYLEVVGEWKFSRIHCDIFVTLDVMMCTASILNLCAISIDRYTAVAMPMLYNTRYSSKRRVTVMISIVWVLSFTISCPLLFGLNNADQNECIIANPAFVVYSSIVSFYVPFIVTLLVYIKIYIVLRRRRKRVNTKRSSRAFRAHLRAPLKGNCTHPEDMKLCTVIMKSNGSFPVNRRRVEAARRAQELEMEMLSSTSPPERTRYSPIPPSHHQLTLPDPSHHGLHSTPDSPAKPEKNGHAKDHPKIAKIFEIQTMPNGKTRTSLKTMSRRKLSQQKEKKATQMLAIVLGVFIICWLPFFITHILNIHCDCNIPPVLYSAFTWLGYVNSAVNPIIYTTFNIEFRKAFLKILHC
row,SMILES,inhibition
1,CC1CCCCN1CCNC(=O)c1ccc(Cn2c(SCc3ccccc3)nc3cccnc32)cc1 (configuration not stated),-2.81%
2,Cc1cccc(C)c1Nc1sc(C(=O)c2ccccc2)c(N)c1S(=O)(=O)c1ccccc1,24.9%
3,COc1ccc2nc3sc(C(=O)NCCc4ccc(Cl)cc4)cc3cc2c1,6.14%
4,C=Cc1ccc(CN2C(=O)N(c3ccc(C)c(C)c3)S(=O)(=O)c3ccccc32)cc1,21%
5,COc1ccccc1C(=O)Nc1nnc(SCc2cc(=O)c3ccccc3[nH]2)s1,18%
6,CCN(C(=O)c1ccc(C(=O)N(CC)c2ccccc2C)cc1)c1ccccc1C,10.4%
7,CCOc1ccc(NC(=O)c2cc3cc4ccc(C)cc4nc3o2)cc1,-7.16%
8,Cc1ccc(-n2c(=O)c3ccc(C(=O)NCc4ccco4)cc3n(Cc3ccccc3Cl)c2=O)cc1,-9.01%
9,Brc1cccc(-c2nnn3c2nc(NC2CCCCC2)c2ccccc23)c1,-28.5%
10,COCCNC(=O)CSc1c(C)cnc2c1c(=O)n(C)c(=O)n2C,21.5%
11,Cc1ccc(NC(=O)Cn2cnc3c(oc4ccccc43)c2=O)cc1Cl,1.06%
12,CCCn1c2ccccc2c2cnn(CC(=O)NCCc3ccc(S(N)(=O)=O)cc3)c(=O)c21,4.55%
13,Cn1c(NCc2cccc(Cl)c2)nc2ccccc21,-7.37%
14,COc1cc(OC)c(NC(=O)C2=C(C)C(=O)OC23CCN(C(C)=O)CC3)cc1Cl,-17.9%
15,O=C(NCc1ccccc1)c1cccn1-c1nnc(N2CCCCC2)s1,3.05%
16,Cc1ccc(CSc2nc3cccnc3n2Cc2ccc(C(=O)NC3CC3)cc2)cc1,4.63%
17,Cc1ccc(-n2ncc3c(=O)n(Cc4cccc(Cl)c4)cnc32)cc1C,-0.6%
18,CN(CCN1CCc2ccccc2C1)Cc1nc(Cc2ccccc2F)no1,active: 41%
19,COc1ccc(C(CNC(=O)C(C)Oc2ccc(Br)cc2)N2CCCCC2)cc1 (configuration not stated),active: 78.1%
20,COc1ccc(Cn2c(C(=O)O)c(CNCc3ccco3)c3ccc(C)cc32)cc1,5.37%
21,CCOc1ccccc1CNC(=O)c1cnn(-c2ccc(C)cc2)c1-n1cccc1,6.19%

row,SMILES,inhibition
1,Cc1nn(CCC(=O)Nc2ccc(Cl)cc2)c(C)c1S(=O)(=O)N1CCCCC1,-22.1%
2,Cc1cc(-c2ccc(C)c(S(=O)(=O)NCCCN3CCN(c4ccccc4F)CC3)c2)on1,active: 76%
3,COc1ccc(-c2cc(C(=O)Nc3cc(C(F)(F)F)ccc3Cl)no2)cc1,-1.54%
4,COc1ccccc1Cn1cc(C(=O)c2ccccc2)c(=O)c2cc(OC)c(OC)cc21,27%
5,CCc1ccc(NC(=S)NC2CCN(Cc3ccccc3)CC2)cc1,active: 98.2%
6,CN(C)c1ccc(CNC(=O)C2CCN(c3nnc(-n4cccc4)s3)CC2)cc1,6.66%
7,CCOc1ccc(C(=O)Nc2ccc(-c3cc4ccccc4oc3=O)cc2)cc1Br,-15.5%
8,Cc1ccc(Cn2c(CO)cnc2SCc2ccc(F)cc2)cc1,20.6%
9,Cc1ccc([N+](=O)[O-])cc1Nc1nc(N2CCCC2)nc(N2CCCC2)n1,active: 34.5%
10,O=C(Nc1ccc(Cl)cc1Cl)c1cc(S(=O)(=O)NCc2ccc3c(c2)OCO3)ccc1F,4.9%
11,Cc1ccccc1NC(=O)c1cc2c([nH]c1=O)CC(C)(C)CC2=O,-12.3%
12,Cc1nc2c3ccccc3nc(NNC(=O)CCC(=O)O)n2n1,-5.36%
13,Cc1ccc(NC(=O)CN2C(=O)CCSc3ccccc32)c(C)c1,0.488%
14,COc1ccc(CCNC(=O)c2ccc3c(c2)nc(C)n3-c2ccc(Br)cc2)cc1OC,-3.68%
15,CN(C1CCCCC1)S(=O)(=O)c1ccc2c(c1)c(=O)c(C(=O)N1CCN(c3ccccc3)CC1)cn2C,3.29%
16,O=C(O)c1ccc(NC(=O)c2ccc(Cl)c(S(=O)(=O)N3CCCCCC3)c2)cc1,3.8%
17,O=C(COC(=O)CCc1c[nH]c(=O)[nH]1)Nc1cccc(Cl)c1,active: 35%
18,O=S(=O)(NCCS(=O)(=O)N1CCN(c2ccccc2)CC1)c1ccccc1,-1.17%
19,Cc1ccc(NC(=O)CN2C(=O)C(c3ccccc3)=NC23CCCCC3)cc1C,-17.9%
20,CCc1ccc2occ(CC(=O)N(Cc3ccccc3)C3CCS(=O)(=O)C3)c2c1 (configuration not stated),-4.91%
21,COc1ccc(-n2c(C)nc3c(cnn3-c3ccc(C)c(C)c3)c2=O)cc1Cl,-3.56%

row,SMILES,inhibition
1,CCS(=O)(=O)N1CCCc2cc(C(=O)Nc3cc([N+](=O)[O-])ccc3C)ccc21,20.9%
2,Cc1ccc(C)c(C(=O)N(Cc2nc(-c3ccc(Cl)cc3)no2)C(C)C)c1,active: 39.9%
3,CCc1ccc(S(=O)(=O)c2nnn3c2nc(N(C)Cc2ccccc2)c2cc(Cl)ccc23)cc1,15.4%
4,COc1cccc(CNC(=O)Cn2c(=O)ccc3cc(S(=O)(=O)N4CCCC4)ccc32)c1,-0.557%
5,O=C(NCCc1ccc(Cl)cc1)C1CCN(c2ncccn2)CC1,active: 60.9%
6,Cc1cc(=O)n(CC(=O)N2CCCCC2)c2c1c(C)nn2C,4.87%
7,CCN(CC)CCCNC(=O)c1cn(CC)c2ccc(S(=O)(=O)N3CCC(C)CC3)cc2c1=O,2.3%
8,CSc1cccc(-n2nnc(-c3nsc(NC(=O)c4cccs4)n3)c2C)c1,13.2%
9,COc1ccc(Br)cc1CNC(=O)Cn1nc(C)n2c(cc3cc(F)ccc32)c1=O,10.2%
10,CCOC(=O)c1ccccc1NC(=O)CSc1nc(=O)[nH]c2c1CCCC2,-24.3%
11,COc1cc(OC)cc(C(=O)Nc2nc(-c3nnn(-c4ccc(C)cc4)c3C)ns2)c1,17%
12,CCOC(=O)C1=C(CN2CCC(C)CC2)NC(=O)NC1c1ccc(OC(C)C)cc1 (configuration not stated),7.62%
13,COc1cc(/C=C(/C#N)c2nc(-c3cc4ccccc4oc3=O)cs2)ccc1O,-9.21%
14,Cc1cccc(NC(=O)CSc2nc3c([nH]c4ccccc43)c(=O)n2-c2cc(C)cc(C)c2)c1,-16.9%
15,Cc1c(Cl)cccc1NC(=O)Nc1c[nH]c(=O)[nH]c1=O,2.72%
16,O=C(COC(=O)c1ccccc1Cl)NC1CCCCCCC1,active: 40.2%
17,CC1CCCCN1C(=O)CSc1nc(-c2ccccc2)no1 (configuration not stated),2.77%
18,CS(=O)(=O)c1ccc2nc(NC(=O)CN3CCN(Cc4ccccc4)CC3)sc2c1,active: 44.5%
19,O=C(CSc1nccn1Cc1ccc2c(c1)OCO2)Nc1ccccc1F,-16.1%
20,CCCn1c(=O)sc2cc(NC(=O)c3ccccc3Cl)ccc21,9.28%
